Variants at the floor of the assay are shown more often than the library holds them.
B1: TPR 5TU (parent)
chain: GGAUCUUCUCGAUCUAACAAAAAAGACAAAUCUGCCACAAAGCUUGAGAGCAUCUUCGGAUGCAGAGGCGGCAGCCUUCGGUGGCGCGAUAGCGCCAACGUUCUCAACUAUGACACGCAAAACGCGUGCUCCGUUGAAUGGAGUUUAUCAUG

Variants of: B1
Assay: polymerase ribozyme fitness, log enrichment relative to wild type (log ratio); higher = more active; in vitro selection for triplet polymerase activity
Method in brief: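 Mutant libraries of each subunit of a heterodimeric triplet polymerase ribozyme were built by PCR and transcribed. Each library went through one round of in vitro selection in triplicate: annealing with biotinylated primer, partner subunit and triplets, frozen incubation at −7 °C, gel excision of extended constructs, streptavidin-bead capture and RT-PCR. Input and output libraries were Illumina-sequenced; only genotypes with ≥10 input reads and ≥1 read per output were kept. Fitness is log2(genotype enrichment/wild-type enrichment), using inverse-variance-weighted replicate averages.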

GGAUCUUCUCGAUCUAACAAAAAAGACAAAUCGGCCACAAAGCUUGAGAGCAUCUUCGGAUGCAGAGGCGGCAGCCUUCGGUGGCGCAAUAGCGCCAACGUUCUCAACUAUGACACGCUAAACGCUUGCUCCGUUGACUGGAGUUUAUCAUG and GGAUCUUCUCGAUCUAACAAAAAAGACAAAUCGGCCACAAAGCUUGAGAGCAUCUUCGGAUGCAGAGGCGGCAGCCUUCGGUGGCGCGAUAACGCCAACGUUCACAACUAUGACACGCAAAACGCGUGCUCUGUUGAAUGGAGUUUAUCAUG cannot be ordered by “polymerase ribozyme fitness (log ratio)” value: no more than -4.2 for the first, no more than -4.2 for the second.

Going from GGAUCUUCUCGAUCUAACAAAAAAGACAAAUCGGCCACAAAGCUUGAGAGCAACUUCGGAUGCAGAGGCGGCAGCCUUCGGUGGCGCGAUAGCGCCAACGUUCUCAACUAUGACACGCAAAACGCGUGCUCCGUUGAAUGGAGUUUAUCAUG to GGAUCUUCUCGAUCUAACAAAAAAGACAAAUCGGCCACAAAGCUUGAGAGCAAGUUCGGAUGCAGGGGCGGCAGCGUUCGGUGGCGCGAUAGUGCCAACGUUCUCAACUAUGACACGCAAUACGCGUGCUCCGUUGAAUGGAGUUUAUCAUG, the “polymerase ribozyme fitness (log ratio)” value falls from -3.68 to no more than -4.2.

First: GGAUCUUCUCGAUCUAACAAAAAAGACAAAUCGGCCACAAAGCUUGAGAGCAACUUCAGAUGCAGAGGCGGCAGCCUUCGGUGGCGCGAUAGCGCCAACGUUCUCAACUAUGACACGCAAAACGCGUGCUCCGUUGAAUGGAGUUUAUCAUG
Second: GGAUCUUCUCGAUCUAACAAAAAAGACAAAUCGGCCACAAAGCUUGAGAGCAACUUCGGAUGCAGAGGCGGCAGCCUUCGGUGUCGCGAUAACGCCAACGUUCUCAACUAUGACACGCAAAACGCGUGCUCCGUUGAAUUGAGUUUAUCAUG
The “polymerase ribozyme fitness (log ratio)” value of the first is higher: -3.78 for the first, no more than -4.2 for the second.

GGAUCUUCUCGAUCUAACAAAAAAGACAAAUCGGCCACAAAGCUUGAGAGCAUCAUCGGAUGCAGAGGCGGCAGCCUUGUGUGGCGCGAUAGCGCCAACGUUCUAAACUAUGACACGCAAAACGCGUGCUCCGUUGAAUGGAGUUUAUCAAG and GGAUCUUCUCGAUCUAACAAAAAAGACAAAUCGGCCACAAAGCUUGAGAGCAUCAUCGGAUGCAGAGGCGGCAGCCUUCGGUGGCGCGAUAGUGCCAACGUUCUCAUCUAUAACACGCAAAACGCGUGCUUCGUUGAAUGGAGUUUAUCAUG cannot be ordered by “polymerase ribozyme fitness (log ratio)” value: no more than -4.2 for the first, no more than -4.2 for the second.

GGAUCUUCUCGAUCUAACAAAAAAGACAAAUCGGCCACAAAGCUUGAGAGCAUCAUCGGAUGCAGAGGCGGCAGCCUUCGGUGGCUCGAUAGCGCCUACGUUCUCAACUAUGACACGCAAAACGCCUGCUCGGUUGAAUGGAGUUUAUCAUG and GGAUCUUCUCGAUCUAACAAAAAAGACAAAUCGGCCACAAAGCUUGAGAGCAUCCUCGGAUGCAGAGGCGGCAGCUUUCGGUGGCUCGAUAGCGCCAACGUUCUAAACUAUGACAUGCAAAACGCGUGCUCCGUUGAAUGGAGUUUAUCAUG cannot be ordered by “polymerase ribozyme fitness (log ratio)” value: no more than -4.2 for the first, no more than -4.2 for the second.

GGAUCUUCUCGAUCUAACAAAAAAGACAAAUCGGCCACAAAGCUUGAGAGCAUCUCCGGAUGCAGAGGCGGCAGCCUUCGCUGGCGCGAUAGCGUCAACGUUCUCAACUAUGACACGCAAAACGCGUGCUCCGUUGAAUGGAGUUUAUCAUG and GGAUCUUCUCGAUCUAACAAAAAAGACAAAUCGGCCACAAAGCUUGAGAGCAUCUUCGGAAGCAGAGGCGGCAGCCUUCGGUGGCGCGAUAGCGCCAACGUUCUCAACUAUGACACGCAAAACGCGUGCUCCGUUGAAUGGAGUUUAUCAUG are within 0.2 log units of each other in “polymerase ribozyme fitness (log ratio)” value: -3.74 for the first, -3.72 for the second.

GGAUCUUCUCGAUCUAACAAAAAAGACAAAUCUACCACAAAGCUUGAGCGCAUCUUCGGAUGCAGAGCCGGCAGCCUUCGGUGGCGCGAUAGCGCAAACGUUCUCAACUAUGACAUGCAAAACGCGUGCUCCGUUGAAUGGAGUUUAUCAUG and GGAUCUUCUCGAUCUAACAAAAAAGACAAAUCUACCACAAAGCUUGAGAGCAUCUUCGGAUGCAGAGGCGGCAGCCUUCGGUGGCGCGAUAGCGCCAACGUUCUCUACUAUGACACGCAAAACGCGUGCUCCGUUGAAUGGUGUUUAUCAUG cannot be ordered by “polymerase ribozyme fitness (log ratio)” value: no more than -4.2 for the first, no more than -4.2 for the second.

GGAUCUUCUCGAUCUAACAAAAAAGACAAAUCUACCACAAAGCUUGAGAGCAUCUUCGGAUGCAGAGGCGGCAGCCUUCGGUGGCGCGAUAGCGCCAACGUUCUCAUCUAUGACACGCAAAACGCGUGCUCCGUUGAAUGGAGUUUAUCAUG and GGAUCUUCUCGAUCUAACAAAAAAGACAAAUCUAUCACAAAGCUUGAGAGCAUCUUCGGAUGCAGAGGCGGCAGCCUUCGGUGGCGCGAUAGCGCCAACGUUCUCAGCUAUGACACGAAAAACGCGUGCUCCGUUGAAAUGAGUUUAUCAUG cannot be ordered by “polymerase ribozyme fitness (log ratio)” value: no more than -4.2 for the first, no more than -4.2 for the second.

First: GGAUCUUCUCGAUCUAACAAAAAAGACAAAUCUACCAAAAAGCUUGAGAGCCUCUUCGGAUGCAGAGGAGGCAGCCUUCGGUGGCUCGAUAGCGCCAGCGUUCUCAACUAUGACACGCUAAACGCGUACUCCGUUGAAUGGACUUUAUCACG
Second: GGAUCUUCUCGAUCUAACAAAAAAGACAAAUCUACCACAAAGCUUGAGAGCAUCUUCGGAUGCAGAGGCGGCAGCCUUCGGUGGUGCGAUAGCGCCAACGGUCUCAACUAUGACACGCAAAACGCGUGCUCCGUUGAAUGGAGUUUAUCAUG
The “polymerase ribozyme fitness (log ratio)” value of the first is lower: no more than -4.2 for the first, -3.5 for the second.

With GGAUCUUCUCGAUCUAACAAAAAAGACAAAUCUACCACAAAGCUUGAGAGCAUCUUCGGAUGCAGAGGCGGCAGCCUUCGGUGGCGCGAUAGGGACAACGUUCUCAACUAGGACACGCAAAACGCGUGCUCCGUUGAAUGGAGUUUAUCAUG the “polymerase ribozyme fitness (log ratio)” value was no more than -4.2.
